# The BET-seq Pho4 binding data (Le et al. 2018)
# The list shows a part of the results. The energies were worked out here from pooled read counts, against the library average; single values are noisy.
# Molecular target: T1, Pho4 (S. cerevisiae) (UniProt P07270)
# T1 sequence: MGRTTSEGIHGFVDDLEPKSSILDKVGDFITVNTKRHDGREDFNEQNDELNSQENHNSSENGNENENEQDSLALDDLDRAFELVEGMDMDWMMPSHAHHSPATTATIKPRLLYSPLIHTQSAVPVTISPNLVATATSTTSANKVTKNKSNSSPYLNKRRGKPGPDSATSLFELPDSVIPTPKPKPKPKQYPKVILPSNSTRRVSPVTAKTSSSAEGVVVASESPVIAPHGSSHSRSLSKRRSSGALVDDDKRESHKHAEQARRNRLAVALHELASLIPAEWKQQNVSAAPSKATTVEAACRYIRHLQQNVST
# Assay: relative binding free energy (BET-seq); higher = weaker binding
# Conditions: reference: library average
row,Sequence,relative binding free energy
1,GGTGACACGTGTGAGT,0.05 kcal/mol
2,TAAGGCACGTGTTGCA,-0.14 kcal/mol
3,TGCAGCACGTGAGTTA,0.19 kcal/mol
4,CATTACACGTGAGGGT,0.28 kcal/mol
5,TTGGCCACGTGGCTGG,-0.04 kcal/mol
6,GATTACACGTGTGTCA,0.33 kcal/mol
7,TTGTTCACGTGGTAAT,0.22 kcal/mol
8,TGATGCACGTGAAAAG,0.17 kcal/mol
9,CGTTGCACGTGTAGTA,0.04 kcal/mol
10,GTAATCACGTGTGTTT,0.3 kcal/mol
11,TAAATCACGTGTGTCA,0.13 kcal/mol
12,GGAACCACGTGGTGTG,-0.05 kcal/mol
13,GGTATCACGTGGTGCC,0.25 kcal/mol
14,TATGGCACGTGCTGGG,-0.18 kcal/mol
15,CGCGTCACGTGTGTAG,0.11 kcal/mol
16,TATGGCACGTGAGTAT,-0.01 kcal/mol
17,TTTGTCACGTGTTGAC,0.08 kcal/mol
18,TGCTGCACGTGGCGGG,-0.01 kcal/mol
19,CGGGTCACGTGTTTCG,0.13 kcal/mol
20,TTTGTCACGTGTTCTG,0.12 kcal/mol
21,GTTGGCACGTGCTCTG,-0.08 kcal/mol
22,TGGGTCACGTGGCCAT,0.05 kcal/mol
23,GTCTGCACGTGAGGTT,0.34 kcal/mol

row,Sequence,relative binding free energy
1,CCGTGCACGTGGTAGT,-0.07 kcal/mol
2,TGGGGCACGTGAGGGG,0.11 kcal/mol
3,GCAGTCACGTGGGGCG,-0.06 kcal/mol
4,TTTGGCACGTGGACAT,-0.12 kcal/mol
5,AGATACACGTGTGGTA,0.1 kcal/mol
6,TTGTCCACGTGTAGGA,0.07 kcal/mol
7,GTACGCACGTGAGTGG,-0.05 kcal/mol
8,ATAGGCACGTGGGGAG,-0.24 kcal/mol
9,AGGTCCACGTGTGGAT,0.03 kcal/mol
10,GGGGTCACGTGGGCTT,0.11 kcal/mol
11,AGGTTCACGTGGGCTC,0.17 kcal/mol
12,ATCGTCACGTGTAGGG,0.01 kcal/mol
13,TTGGTCACGTGTCCAT,0.19 kcal/mol
14,GAATTCACGTGGTATA,0.24 kcal/mol
15,GGATACACGTGTGGCG,0.08 kcal/mol
16,ATATGCACGTGGAGGC,-0.03 kcal/mol
17,GAGGGCACGTGGGGAC,-0.26 kcal/mol
18,GGTATCACGTGATGGA,0.26 kcal/mol
19,ATTCACACGTGGAGGT,0.08 kcal/mol
20,CCTGGCACGTGTTTGA,-0.01 kcal/mol
21,TGGGGCACGTGGGGTA,-0.25 kcal/mol
22,GTCGTCACGTGGGTTC,0.12 kcal/mol
23,CGTTTCACGTGGAAGT,0.33 kcal/mol

row,Sequence,relative binding free energy
1,GGTTGCACGTGTATAC,0 kcal/mol
2,CAGTTCACGTGAGTTT,0.43 kcal/mol
3,CGAAGCACGTGTTGGT,-0.14 kcal/mol
4,TAATTCACGTGAGGTG,0.33 kcal/mol
5,ATTTTCACGTGCTGGT,0.03 kcal/mol
6,CGTTTCACGTGATGGT,0.32 kcal/mol
7,CTAGACACGTGTTGTT,-0.01 kcal/mol
8,TACAGCACGTGGGTTT,-0.21 kcal/mol
9,TTGGTCACGTGCGAGA,0.09 kcal/mol
10,GTTAGCACGTGCTGTA,0.02 kcal/mol
11,GCTTTCACGTGTGTTT,0.39 kcal/mol
12,GGGTGCACGTGGCTAT,-0.07 kcal/mol
13,TGTACCACGTGTTGTA,-0.01 kcal/mol
14,AGGTGCACGTGAGAGA,0.24 kcal/mol
15,ATGGGCACGTGTGATG,-0.04 kcal/mol
16,AATGGCACGTGATAGA,0.04 kcal/mol
17,ATGTACACGTGTCGTA,0.12 kcal/mol
18,GGGTACACGTGTTCGT,0.18 kcal/mol
19,TAAGTCACGTGGTTGC,0.18 kcal/mol
20,AGAGTCACGTGTGAGC,0.29 kcal/mol
21,GCATGCACGTGCGTGG,-0.13 kcal/mol
22,TTGGTCACGTGATGAA,0.19 kcal/mol
23,TTGTGCACGTGTCACG,0.03 kcal/mol

row,Sequence,relative binding free energy
1,ACGGGCACGTGCGGAG,-0.11 kcal/mol
2,TCGTCCACGTGGTGTA,-0.08 kcal/mol
3,CATGGCACGTGTGTGC,-0.01 kcal/mol
4,ATTAGCACGTGGATAT,-0.01 kcal/mol
5,GTTGACACGTGTGAAT,0.13 kcal/mol
6,TGAGTCACGTGAAGTG,0.39 kcal/mol
7,AGTAACACGTGTTGGC,-0.03 kcal/mol
8,AGTTTCACGTGGCATT,0.22 kcal/mol
9,TGCTACACGTGGGTGG,-0.16 kcal/mol
10,ATGATCACGTGCATGG,0.09 kcal/mol
11,TGGAGCACGTGCGTTG,-0.27 kcal/mol
12,ATGTCCACGTGATGTT,0.17 kcal/mol
13,TGTGACACGTGGTCTA,-0.2 kcal/mol
14,TGAGGCACGTGAATTG,-0.01 kcal/mol
15,TGCATCACGTGCTTGG,0.15 kcal/mol
16,GATGGCACGTGTCTTG,0.1 kcal/mol
17,TTCTTCACGTGGTTTA,0.28 kcal/mol
18,TCTGTCACGTGTAAAG,0.2 kcal/mol
19,ATTAGCACGTGGGCTG,-0.16 kcal/mol
20,TATAACACGTGAGGGA,0.17 kcal/mol
21,GGGAGCACGTGGAGTA,-0.15 kcal/mol
22,TTGGGCACGTGAACGA,0.32 kcal/mol
23,GGAGTCACGTGTGGCT,0.11 kcal/mol

row,Sequence,relative binding free energy
1,TTTTGCACGTGTTGTT,0.05 kcal/mol
2,TCTGTCACGTGTTTGT,-0.06 kcal/mol
3,TTGTGCACGTGCTGGA,-0.09 kcal/mol
4,GTAATCACGTGCGAGG,0.17 kcal/mol
5,GTTAACACGTGGCTTT,0.12 kcal/mol
6,AATTACACGTGGGGAG,-0.05 kcal/mol
7,CTAGGCACGTGCGGGT,-0.26 kcal/mol
8,CGAGGCACGTGTTTAG,-0.09 kcal/mol
9,GGAGGCACGTGGTTAT,-0.08 kcal/mol
10,ATGGACACGTGAGTAT,0.17 kcal/mol
11,TTACGCACGTGGGATA,-0.15 kcal/mol
12,GAAGTCACGTGTAGTG,0.09 kcal/mol
13,GAGTACACGTGGTAGA,0.12 kcal/mol
14,TTTTACACGTGGGTCT,0.01 kcal/mol
15,AGAGTCACGTGTATAT,0.16 kcal/mol
16,CTTTTCACGTGTGGCT,0.26 kcal/mol
17,CTGTGCACGTGATTAT,-0.03 kcal/mol
18,GTGTACACGTGTGTAA,0.04 kcal/mol
19,GGGCTCACGTGATGGT,0.38 kcal/mol
20,GGGATCACGTGTTGGA,0.17 kcal/mol
21,TAGTGCACGTGGGAAA,-0.06 kcal/mol
22,TTTGTCACGTGCATGC,-0.05 kcal/mol
23,GTGTTCACGTGGCGGC,0.18 kcal/mol
